Test results from patent publication US20240368238A1 (DRACOTERPIN BIOMEDICINE, published 2024).

Target: T1, IL-2Rβ/γ-Fc heterodimer (IL-2Rβ-Fc-hole + IL-2Rγ-Fc-knob) (UniProt P14784 27-240; P31785 23-262)
T1 construct: Both chains transfected together into HEK293; purified with Protein A and Superdex 200; used as the analyte in the BLI; also called IL-2Rβ/γ heterodimers; not shown: Fc hole; Fc knob
T1 sequence (looked up) 1: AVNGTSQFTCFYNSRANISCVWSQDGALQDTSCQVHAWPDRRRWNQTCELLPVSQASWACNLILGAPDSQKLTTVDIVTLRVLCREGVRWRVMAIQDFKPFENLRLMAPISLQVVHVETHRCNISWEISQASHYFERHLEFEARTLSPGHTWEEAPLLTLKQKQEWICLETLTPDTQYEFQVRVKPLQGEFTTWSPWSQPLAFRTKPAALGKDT
T1 sequence (looked up) 2: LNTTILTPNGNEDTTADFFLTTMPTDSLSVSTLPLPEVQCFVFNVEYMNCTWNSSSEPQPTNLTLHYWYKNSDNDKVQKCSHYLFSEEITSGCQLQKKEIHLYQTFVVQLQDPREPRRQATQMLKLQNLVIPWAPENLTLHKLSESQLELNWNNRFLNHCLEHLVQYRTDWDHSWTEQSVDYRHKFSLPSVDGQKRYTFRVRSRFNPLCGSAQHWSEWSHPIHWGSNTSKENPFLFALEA
Test: BLI (Octet RED96e), AR2G sensors, IL-2Rβ/γ-Fc heterodimer as analyte, 1:1 global fit
Protocol: Experimental data were processed using Data Analysis software 9.0. […] The method of global fitting was applied, i.e., the 6 concentrations were analyzed as a group.

B1: IL-2-10 (IL-2-1 + Fc) (Fc fusion)
chain: APTSSSTKKTQLQLEHLLLDLQMILNGINNGGNPMHGLDGFGMPKKATELKHLQCLEEELKPLEEVLNLAQSKNFHLRPRDLISNINVIVLELKGSETTFMCEYADETATIVEFLNRWITFAQSIISTLT[skipping human IgG1 Fc with changes]
B1 showed a Kd of 9.83 nM.
